{"source": "the supplement of paper PMC10037445", "key": {"RAW-Dual [1]": {"system": "RAW-Dual", "experiment": "IRF Lucia reporter activity, fold change vs agonist alone; cytotoxicity flag (confluency mask): not cytotoxic; higher = enhanced IRF activity", "in_short": "(§1)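 Library stock was pin-tooled at 50 nL into 384-well plates of RAW-Dual macrophages (50,000 cells/well, DMEM), followed 1 h later by a PRR agonist, and the cells were kept at 37 °C, 5% CO2. Supernatant collected after 20 hours was read for IRF by QuantiLuc luminescence and for NF-κB by QuantiBlue absorbance at 620 nm. Reporter activity is fold change over agonist-alone wells, and a well counted as cytotoxic when its IncuCyte confluency was below 70% of agonist controls in both mask sets.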"}, "RAW-Dual [2]": {"system": "RAW-Dual", "experiment": "IRF Lucia reporter activity, fold change vs agonist alone; higher = enhanced IRF activity", "settings": "library stock concentration (final ~1000-fold dilution): 10 mM; cytotoxicity flag (confluency mask): not cytotoxic; agonist: MPLA (TLR4) […]", "in_short": "as §1"}, "[3]": {"settings": "agonist: 3'3'-cGAMP (STING) 10 ug/mL"}}, "note": "In all, about 2,900 compounds were measured (“IRF Lucia reporter activity, fold change vs agonist alone”: median about 0.9, highest 2% from about 2.8 on). Some of the results follow."}
{"smiles": "Fc1ccc(Cn2c(Cl)nc3ccccc32)cc1", "note": "(library stock concentration (final ~1000-fold dilution): 10 mM)", "values": [{"measurement": "IRF Lucia reporter activity", "setting": "RAW-Dual [1]; [3]", "value": 1.25}, {"measurement": "IRF Lucia reporter activity", "setting": "RAW-Dual [1]; agonist: LPS (TLR4) 0.1 ug/mL", "value": 1.95}]}
{"smiles": "Fc1ccc(Cn2c(Cl)nc3ccccc32)cc1", "values": [{"measurement": "IRF Lucia reporter activity", "setting": "RAW-Dual [2]", "value": 1.51}]}
{"smiles": "C[C@H]1CC[C@@]2(OC1)O[C@H]1C[C@H]3[C@@H]4CC[C@@H]5C[C@@H](O)CC[C@]5(C)[C@H]4CC[C@]3(C)[C@H]1[C@@H]2C", "note": "(library stock concentration (final ~1000-fold dilution): 10 mM)", "values": [{"measurement": "IRF Lucia reporter activity", "setting": "RAW-Dual [1]; [3]", "value": 0.937}, {"measurement": "IRF Lucia reporter activity", "setting": "RAW-Dual [1]; agonist: LPS (TLR4) 0.1 ug/mL", "value": 1.18}]}
{"smiles": "CC(Cn1ccc(-c2ccc(C#N)c(Cl)c2)n1)NC(=O)c1cc(C(C)O)[nH]n1", "note": "(centres undefined)", "values": [{"measurement": "IRF Lucia reporter activity", "setting": "RAW-Dual [2]", "value": 1.02}]}
{"smiles": "CC(Cn1ccc(-c2ccc(C#N)c(Cl)c2)n1)NC(=O)c1cc(C(C)O)[nH]n1", "note": "(centres undefined) (library stock concentration (final ~1000-fold dilution): 10 mM)", "values": [{"measurement": "IRF Lucia reporter activity", "setting": "RAW-Dual [1]; [3]", "value": 0.982}, {"measurement": "IRF Lucia reporter activity", "setting": "RAW-Dual [1]; agonist: LPS (TLR4) 0.1 ug/mL", "value": 1.09}]}
{"smiles": "NC(=O)C1CCCc2c1[nH]c1ccc(Cl)cc21", "note": "(centres undefined) (library stock concentration (final ~1000-fold dilution): 10 mM)", "values": [{"measurement": "IRF Lucia reporter activity", "setting": "RAW-Dual [1]; [3]", "value": 1.1}, {"measurement": "IRF Lucia reporter activity", "setting": "RAW-Dual [1]; agonist: LPS (TLR4) 0.1 ug/mL", "value": 0.919}]}
{"smiles": "NC(=O)C1CCCc2c1[nH]c1ccc(Cl)cc21", "note": "(centres undefined)", "values": [{"measurement": "IRF Lucia reporter activity", "setting": "RAW-Dual [2]", "value": 0.912}]}
{"smiles": "CC1CN(CC(=O)Nc2ccc3c(c2)Cc2cccc(-c4cc(=O)cc(N5CCOCC5)o4)c2S3)CC(C)O1", "note": "(centres undefined) (library stock concentration (final ~1000-fold dilution): 10 mM)", "values": [{"measurement": "IRF Lucia reporter activity", "setting": "RAW-Dual [1]; [3]", "value": 0.508}, {"measurement": "IRF Lucia reporter activity", "setting": "RAW-Dual [1]; agonist: LPS (TLR4) 0.1 ug/mL", "value": 6.62}]}
{"smiles": "CC1CN(CC(=O)Nc2ccc3c(c2)Cc2cccc(-c4cc(=O)cc(N5CCOCC5)o4)c2S3)CC(C)O1", "note": "(centres undefined)", "values": [{"measurement": "IRF Lucia reporter activity", "setting": "RAW-Dual [2]", "value": 5.96}]}
{"smiles": "Cc1ccc(Nc2nccc(N(C)c3ccc4c(C)n(C)nc4c3)n2)cc1S(N)(=O)=O.Cl", "note": "(library stock concentration (final ~1000-fold dilution): 10 mM)", "values": [{"measurement": "IRF Lucia reporter activity", "setting": "RAW-Dual [1]; [3]", "value": 0.0722}, {"measurement": "IRF Lucia reporter activity", "setting": "RAW-Dual [1]; agonist: LPS (TLR4) 0.1 ug/mL", "value": 0.446}]}
{"smiles": "Cc1ccc(Nc2nccc(N(C)c3ccc4c(C)n(C)nc4c3)n2)cc1S(N)(=O)=O.Cl", "values": [{"measurement": "IRF Lucia reporter activity", "setting": "RAW-Dual [2]", "value": 0.646}]}
{"smiles": "CCOC(=O)C1=C(C)NC(=S)NC1c1cccc(O)c1", "note": "(centres undefined) (library stock concentration (final ~1000-fold dilution): 10 mM)", "values": [{"measurement": "IRF Lucia reporter activity", "setting": "RAW-Dual [1]; [3]", "value": 1.09}, {"measurement": "IRF Lucia reporter activity", "setting": "RAW-Dual [1]; agonist: LPS (TLR4) 0.1 ug/mL", "value": 1.02}]}
{"smiles": "CCn1c(N)c(C(=O)NC)c(=O)c2ccc(C#CC(C)(O)COC)nc21", "note": "(centres undefined)", "values": [{"measurement": "IRF Lucia reporter activity", "setting": "RAW-Dual [2]", "value": 0.874}]}
{"smiles": "CCn1c(N)c(C(=O)NC)c(=O)c2ccc(C#CC(C)(O)COC)nc21", "note": "(centres undefined) (library stock concentration (final ~1000-fold dilution): 10 mM)", "values": [{"measurement": "IRF Lucia reporter activity", "setting": "RAW-Dual [1]; [3]", "value": 0.841}, {"measurement": "IRF Lucia reporter activity", "setting": "RAW-Dual [1]; agonist: LPS (TLR4) 0.1 ug/mL", "value": 0.781}]}
{"smiles": "OCCn1cc(-c2ccc3c(c2)CC/C3=N\\O)c(-c2ccncc2)n1", "note": "(library stock concentration (final ~1000-fold dilution): 10 mM)", "values": [{"measurement": "IRF Lucia reporter activity", "setting": "RAW-Dual [1]; [3]", "value": 0.614}, {"measurement": "IRF Lucia reporter activity", "setting": "RAW-Dual [1]; agonist: LPS (TLR4) 0.1 ug/mL", "value": 0.658}]}
{"smiles": "OCCn1cc(-c2ccc3c(c2)CC/C3=N\\O)c(-c2ccncc2)n1", "values": [{"measurement": "IRF Lucia reporter activity", "setting": "RAW-Dual [2]", "value": 0.784}]}
{"smiles": "Nc1nc(OCC2CCCCC2)c2nc[nH]c2n1", "values": [{"measurement": "IRF Lucia reporter activity", "setting": "RAW-Dual [2]", "value": 0.754}]}
{"smiles": "Nc1nc(OCC2CCCCC2)c2nc[nH]c2n1", "note": "(library stock concentration (final ~1000-fold dilution): 10 mM)", "values": [{"measurement": "IRF Lucia reporter activity", "setting": "RAW-Dual [1]; [3]", "value": 0.486}, {"measurement": "IRF Lucia reporter activity", "setting": "RAW-Dual [1]; agonist: LPS (TLR4) 0.1 ug/mL", "value": 0.801}]}
{"smiles": "CC1COC2(CCN(c3nc(=O)c4cc(C(F)(F)F)cc([N+](=O)[O-])c4s3)CC2)O1", "note": "(centres undefined)", "values": [{"measurement": "IRF Lucia reporter activity", "setting": "RAW-Dual [2]", "value": 1.05}]}
{"smiles": "CC1COC2(CCN(c3nc(=O)c4cc(C(F)(F)F)cc([N+](=O)[O-])c4s3)CC2)O1", "note": "(centres undefined) (library stock concentration (final ~1000-fold dilution): 10 mM)", "values": [{"measurement": "IRF Lucia reporter activity", "setting": "RAW-Dual [1]; [3]", "value": 0.953}, {"measurement": "IRF Lucia reporter activity", "setting": "RAW-Dual [1]; agonist: LPS (TLR4) 0.1 ug/mL", "value": 1.18}]}
{"smiles": "O=C1C(Cl)=C(N2CCOCC2)C(=O)N1c1ccc(Cl)c(Cl)c1", "note": "(library stock concentration (final ~1000-fold dilution): 10 mM)", "values": [{"measurement": "IRF Lucia reporter activity", "setting": "RAW-Dual [1]; [3]", "value": 0.55}, {"measurement": "IRF Lucia reporter activity", "setting": "RAW-Dual [1]; agonist: LPS (TLR4) 0.1 ug/mL", "value": 0.547}]}
{"smiles": "Cc1ccc(-c2cc(C(F)(F)F)nn2-c2ccc(S(N)(=O)=O)cc2)cc1", "values": [{"measurement": "IRF Lucia reporter activity", "setting": "RAW-Dual [2]", "value": 0.709}]}
{"smiles": "Cc1ccc(-c2cc(C(F)(F)F)nn2-c2ccc(S(N)(=O)=O)cc2)cc1", "note": "(library stock concentration (final ~1000-fold dilution): 10 mM)", "values": [{"measurement": "IRF Lucia reporter activity", "setting": "RAW-Dual [1]; [3]", "value": 0.764}, {"measurement": "IRF Lucia reporter activity", "setting": "RAW-Dual [1]; agonist: LPS (TLR4) 0.1 ug/mL", "value": 1.05}]}
{"smiles": "CCCCCCCCCC(=O)NC(Cc1c[nH]c2ccccc12)C(=O)NC(CC(N)=O)C(=O)NC(CC(=O)O)C(=O)NC1C(=O)NCC(=O)NC(CCCN)C(=O)NC(CC(=O)O)C(=O)NC(C)C(=O)NC(CC(=O)O)C(=O)NCC(=O)NC(CO)C(=O)NC(C(C)CC(=O)O)C(=O)NC(CC(=O)c2ccccc2N)C(=O)OC1C", "note": "(centres undefined) (library stock concentration (final ~1000-fold dilution): 10 mM)", "values": [{"measurement": "IRF Lucia reporter activity", "setting": "RAW-Dual [1]; [3]", "value": 0.986}, {"measurement": "IRF Lucia reporter activity", "setting": "RAW-Dual [1]; agonist: LPS (TLR4) 0.1 ug/mL", "value": 0.824}]}
{"smiles": "CCCCCCCCCC(=O)NC(Cc1c[nH]c2ccccc12)C(=O)NC(CC(N)=O)C(=O)NC(CC(=O)O)C(=O)NC1C(=O)NCC(=O)NC(CCCN)C(=O)NC(CC(=O)O)C(=O)NC(C)C(=O)NC(CC(=O)O)C(=O)NCC(=O)NC(CO)C(=O)NC(C(C)CC(=O)O)C(=O)NC(CC(=O)c2ccccc2N)C(=O)OC1C", "note": "(centres undefined)", "values": [{"measurement": "IRF Lucia reporter activity", "setting": "RAW-Dual [2]", "value": 0.741}]}
